From paper PMC4305288
No constants are given. Whether binding was seen depends on the method and setting. For part of these data: In cells and extracts the contact can be indirect. Some binding calls cover weakened binding; strength is not graded here. Sequences can lack the tags named with a protein.

The chains behind the UniProt entries cited, without tags or fusion partners.
UniProt Q9ZSD4: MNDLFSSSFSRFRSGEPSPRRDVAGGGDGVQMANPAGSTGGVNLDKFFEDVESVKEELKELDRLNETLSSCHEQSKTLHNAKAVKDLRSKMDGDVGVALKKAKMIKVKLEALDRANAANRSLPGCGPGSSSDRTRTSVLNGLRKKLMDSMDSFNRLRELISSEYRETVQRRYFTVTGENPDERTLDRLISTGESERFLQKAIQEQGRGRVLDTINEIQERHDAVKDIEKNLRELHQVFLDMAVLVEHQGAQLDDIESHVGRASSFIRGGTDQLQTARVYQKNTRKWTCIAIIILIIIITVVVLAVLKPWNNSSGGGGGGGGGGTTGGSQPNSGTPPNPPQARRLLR

Tests used:
[1] = target: T1, EXO70B1-pGBKT7 (Arabidopsis thaliana) (UniProt Q9FGH9); assay: two-hybrid; … GAL4 Two-Hybrid System 3; EXO70B1-pGBKT7 as bait, preys in pGADT7; S. cerevisiae AH109; growth on SD/-Ade/-His/-Leu/-Trp at 28°C
T1 sequence: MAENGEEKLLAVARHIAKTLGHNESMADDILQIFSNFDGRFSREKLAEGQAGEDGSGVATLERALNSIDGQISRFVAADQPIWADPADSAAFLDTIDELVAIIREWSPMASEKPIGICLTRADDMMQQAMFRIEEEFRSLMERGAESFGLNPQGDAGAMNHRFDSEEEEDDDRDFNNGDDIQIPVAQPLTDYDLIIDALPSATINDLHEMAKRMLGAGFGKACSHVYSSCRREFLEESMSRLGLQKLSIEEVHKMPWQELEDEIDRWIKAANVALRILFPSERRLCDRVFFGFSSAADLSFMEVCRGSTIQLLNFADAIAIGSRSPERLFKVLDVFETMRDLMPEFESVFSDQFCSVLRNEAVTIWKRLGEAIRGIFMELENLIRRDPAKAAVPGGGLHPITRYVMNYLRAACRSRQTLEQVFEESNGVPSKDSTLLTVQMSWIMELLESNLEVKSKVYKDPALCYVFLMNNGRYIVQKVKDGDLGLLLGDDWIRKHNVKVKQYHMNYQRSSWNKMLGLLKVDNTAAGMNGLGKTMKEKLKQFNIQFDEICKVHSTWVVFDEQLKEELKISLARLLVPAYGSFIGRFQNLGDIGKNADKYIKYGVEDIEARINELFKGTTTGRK

[2] = target: T2, SNAP33-YFP^C (Arabidopsis thaliana) (UniProt Q9S7P9); assay: split reporter; BiFC with YFP^N and YFP^C fusions co-infiltrated by Agrobacterium GV3101 into N. benthamiana leaves; YFP fluorescence by confocal microscopy after 48 hr
T2 sequence: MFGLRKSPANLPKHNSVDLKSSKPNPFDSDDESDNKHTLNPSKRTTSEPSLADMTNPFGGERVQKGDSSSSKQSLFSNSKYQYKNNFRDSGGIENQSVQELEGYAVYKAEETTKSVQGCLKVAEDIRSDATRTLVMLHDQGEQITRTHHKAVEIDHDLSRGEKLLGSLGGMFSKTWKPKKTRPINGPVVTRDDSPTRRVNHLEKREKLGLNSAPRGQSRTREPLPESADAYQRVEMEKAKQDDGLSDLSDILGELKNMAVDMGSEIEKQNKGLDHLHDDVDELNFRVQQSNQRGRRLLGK

[3] = target: PEN1-YFP^C (Arabidopsis thaliana) (UniProt Q9ZSD4); assay: as above
[4] = target: T3, VAMP721-YFP^C (Arabidopsis thaliana) (UniProt Q9ZTW3); assay: as above
T3 sequence: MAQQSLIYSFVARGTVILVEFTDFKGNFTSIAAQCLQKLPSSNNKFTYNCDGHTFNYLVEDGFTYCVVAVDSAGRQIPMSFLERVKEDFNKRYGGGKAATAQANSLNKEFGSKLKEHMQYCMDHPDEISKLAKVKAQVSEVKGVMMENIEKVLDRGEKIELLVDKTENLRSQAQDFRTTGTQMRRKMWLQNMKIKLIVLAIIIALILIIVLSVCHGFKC

[5] = target: T4, SNAP33-Myc (Arabidopsis thaliana) (UniProt Q9S7P9); assay: co-IP; transient co-expression in N. benthamiana leaves; total protein in NB1 buffer; immunoprecipitation with anti-Myc or anti-HA antibody and protein G agarose at 4 °C; washed 4 times with PBS; immunoblot
T4 sequence: T2 sequence

[6] = target: PEN1-HA (Arabidopsis thaliana) (UniProt Q9ZSD4); assay: as above
[7] = target: T5, SNAP33-HA (Arabidopsis thaliana) (UniProt Q9S7P9); assay: co-IP; stably transformed Arabidopsis expressing EXO70B1-GFP and SNAP33-HA under native promoters; total protein from 3-week-old plants; immunoprecipitation with anti-HA antibody; immunoblot with GFP antibody
T5 sequence: T2 sequence

B1: SEC5a fused with pGADT7 (protein, UniProt Q8S3U9 1-1090)
chain: MSSDSNDLDEDELLQMALKEQAKRDLTYQKPPSSSARKPVANLVQQPRQQKPVAAAAAPPKKSAAAVRKPSMDEDEESEVELLSISSGDDDLEREREIGGSSGGAGRGRGSDVREKGRARKEDDGAWDGGEPDCWKRVNEAELARRVRDMRESRTAPVVQKVEGKAPAPGKKVALTSLQSLPRGMECIDPLKLGIIDNKTLRLITESSGSPSKAEKVDNTLREKLVYFSDHFDPKLFLSRIHQDTTAADLEAGALGLKSDLKGRNLQRKQLVKDNFDCFVSCKTTIDDIESKLKRIEEDPEGSGTTHLFNCMKSVTSRANLAFEPLFERQAQAEKIRSVQGMLQRFRTLFNLPSIIRSSISKGEYDLAVREYKKAKSIALPSHVNILKRVLEEVEKVMLEFKGTLYKSMEDPKIDFTSLENTVRLLLELEPESDPVWHYLNVQNHRIHGLLEKCTYDHEARVEILRNDTHEKAISDAKWQQIQQNGVSYSDTASSNENNAVQVDLQSVEFPSEEIDILKGRYIKRLTAVLVHHIPVFWKTAISIFSGKFAKSSQVTDTSANKAEEKVTEARYSTHSLEEVAGMIRKTISVYEAKVNSTFCDFDESCILRPFMSDAINEVSKACQAFEAKESTPHSAVVALRKIQAEITKIYIQRLCSWMRASTEGISKEETWIPVSILERNRSPYAISYLPLAFRSVIVSGMEQVNLMILSVKSEAAKSEDMFAQIEEIIISVRLAFLNCFLDFAAHLEQIGADLSQSTSRQDNWKNGYSDEHQEEPSANTYGSVIDPHRRLLMVLSNIGYCKDELASELYNKFKYTWLQSRDKNEDSSDLQDLIMSFSGLGEKVLEHYTFAKANLIRTAATNYLLDSGIQWGSAPQVKGIRDAAVELLHTLVAVHAEVFAGAKPLLDKILGVLIEGLIDTFLSVVEENRSSDLRSIDANGFCQLMFELEYFETVLYSYFTSAATESLKSLQGTVLEIAIESISEAVETPGHNRRPTRGSEDTVSDDKQSVSADDLLALTKQCSNELLQQELERTRVNTACFAESAPLESTPPLPKATYSSFRGSMDSPSRNYRGSQSSGSPINARPRRR
- binding [1]: binds

B2: SEC15b fused with pGADT7 (protein, UniProt F4JHH5 1-787)
chain: MQSSKGRRKVGSTTAGAGIDSAEKLDELLISSAICNGEDLGPFVRKTFGTGKPETLLHHLKFFARSKESEIEEVCKAHYQDFIHAVDDLKSLLSDVESLKSALSDSNSKLQSVAAPLLSSLDSLVEAQTVSKNVDLAIGAVTHCVRVMELVSRANQHLQSGNFYMALKCVDSIESDFMEKTPSSTLKRMLENRIPAIRSYVERKVNKEFGDWLVEIRVVSRNLGQLAIGEASAARQREEELRIKQRQAEEQSRLSLRDCVYALNEEEDDEFGSGHEGSDGGSSGGGLLGFDLTPLYRAYHIHQTLSLGDTFKQYYYNNRDLQLTSDFQIAGFFIVEDRVLRTGGGLISKLEVETLWDTAVTKMCAVLEDQFSRMQTANHLLLIKDYVSLLGVSLRRYGYAVDSLLEVLSKHRDKYHELLLSDCRKQITEALSADKFEQMLMKKEYEYSMNVLSFQLQTSEIVPAFPFIAPFSTTVPDCCRIVRSFIEDSVSFMSHGGQLDFYDVVKKYLDRLLGEVLDEALLKLISTSVHGVSQAMQVAANMAVFERACDFFFRHAAHLSGVPLRMAERGRRHFPLTKSQNTAEDTLSGMLKKKIDGFMTLLENVNWTSDDIPQGGNEYMNEVLIYLETLVSTAQQILPAKVLKRVLRDVLAHISEKIVGTLCGDLVKRLSMAAIKGLDVDIQLLDSFTENLTPLLTDKEAREMKKAFVEIRQMINLLLSSHPENFVNPVIRERSYNALDYRKVATVSEKFRDPSDSIFGTFGTRGSRQNPKNKSLDALIKRLKDVS
- binding [1]: binds

B3: SNAP33 fused with pGADT7 (protein, UniProt Q9S7P9 1-300)
chain: T2 sequence
- binding [1]: binds

B4: EXO70B1-YFP^N (protein, UniProt Q9FGH9 1-624)
chain: T1 sequence
- binding [2]: binds
- binding [3]: no binding
- binding [4]: no binding

B5: EXO70B1-GFP (EXO70B1pro:EXO70B1-GFP, in N. benthamiana) (protein, UniProt Q9FGH9 1-624)
chain: T1 sequence
- binding [5]: binds
- binding [6]: no binding

B6: EXO70B1-GFP (EXO70B1pro:EXO70B1-GFP, in transgenic Arabidopsis) (protein, UniProt Q9FGH9 1-624)
chain: T1 sequence
- binding [7]: binds
